Whole data set: some 33,000 sequences, median “E-score (-0.5 to 0.5)” near -0.053, cut for the highest 2% near 0.37. This is one part of the list.
These sequences were tested against Hap1 (UniProt P0CE41) (assay: PBM E-score (8-mer binding enrichment) (E-score (-0.5 to 0.5)); higher = stronger / more preferred TF binding; most listed sequences are background and not binding sites). Conditions: protein concentration: 200 nM; construct: GST-DNA-binding domain.
Method in brief: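 Detection of bound protein used fluorescent anti-GST, with scans normalised by masliner. The proteins were GST-tagged yeast transcription factors applied at about 100-200 nM to universal all-10-mer Agilent arrays made double-stranded by primer extension. Each ungapped eight-base word, pooled with its reverse complement, was scored with an E-score from the Universal PBM Analysis Suite.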

Sequence of UniProt P0CE41 (P0CE41 whole entry, the tested form may be a part): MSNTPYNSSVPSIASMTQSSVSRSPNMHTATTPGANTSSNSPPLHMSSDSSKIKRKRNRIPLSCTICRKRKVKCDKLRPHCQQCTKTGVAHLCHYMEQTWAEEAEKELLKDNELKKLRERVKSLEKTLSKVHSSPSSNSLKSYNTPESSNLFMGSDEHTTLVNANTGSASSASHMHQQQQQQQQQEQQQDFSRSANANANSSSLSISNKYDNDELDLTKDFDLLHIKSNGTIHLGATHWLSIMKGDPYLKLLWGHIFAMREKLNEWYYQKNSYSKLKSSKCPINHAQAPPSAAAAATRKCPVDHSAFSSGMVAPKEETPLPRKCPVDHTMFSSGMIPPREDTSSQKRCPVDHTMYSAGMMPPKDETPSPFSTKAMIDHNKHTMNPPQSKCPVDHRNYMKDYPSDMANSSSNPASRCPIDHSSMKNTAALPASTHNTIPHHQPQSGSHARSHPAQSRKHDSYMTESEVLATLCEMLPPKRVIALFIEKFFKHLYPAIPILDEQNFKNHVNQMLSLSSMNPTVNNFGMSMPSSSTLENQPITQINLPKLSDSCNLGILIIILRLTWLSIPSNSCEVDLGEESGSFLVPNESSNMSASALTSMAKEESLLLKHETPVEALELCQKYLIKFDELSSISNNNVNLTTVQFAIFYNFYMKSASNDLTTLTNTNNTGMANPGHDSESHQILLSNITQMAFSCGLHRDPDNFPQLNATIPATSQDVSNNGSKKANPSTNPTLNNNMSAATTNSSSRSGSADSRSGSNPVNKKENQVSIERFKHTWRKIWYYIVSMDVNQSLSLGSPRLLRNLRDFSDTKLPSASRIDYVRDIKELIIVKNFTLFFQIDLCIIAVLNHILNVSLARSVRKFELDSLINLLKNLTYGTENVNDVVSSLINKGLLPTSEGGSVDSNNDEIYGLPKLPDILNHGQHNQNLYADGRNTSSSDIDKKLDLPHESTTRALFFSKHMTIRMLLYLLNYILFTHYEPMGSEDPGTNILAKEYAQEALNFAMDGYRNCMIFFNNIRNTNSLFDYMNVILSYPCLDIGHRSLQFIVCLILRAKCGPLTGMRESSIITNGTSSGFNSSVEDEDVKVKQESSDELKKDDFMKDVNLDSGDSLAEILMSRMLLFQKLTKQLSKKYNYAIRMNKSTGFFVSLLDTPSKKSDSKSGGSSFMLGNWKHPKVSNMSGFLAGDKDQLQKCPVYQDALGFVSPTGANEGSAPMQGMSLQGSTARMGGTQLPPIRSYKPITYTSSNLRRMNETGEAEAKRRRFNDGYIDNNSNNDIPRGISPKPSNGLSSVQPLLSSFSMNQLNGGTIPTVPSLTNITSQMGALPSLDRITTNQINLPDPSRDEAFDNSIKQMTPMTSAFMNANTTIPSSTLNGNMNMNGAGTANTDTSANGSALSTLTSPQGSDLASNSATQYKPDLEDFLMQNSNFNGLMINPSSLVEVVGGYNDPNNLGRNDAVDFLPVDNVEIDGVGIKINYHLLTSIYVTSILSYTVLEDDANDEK

Sequence | PBM E-score
CCCCGCCC | 0.303
AACTTCTC | -0.0545
CCGATTTC | 0.307
ATACCAAA | -0.00671
ATGCACTC | -0.114
ACAGATAG | -0.219
GCTGGGTA | -0.163
AACAGTAT | -0.256
ACTTATGG | 0.111
CCATTGAG | -0.0522
ATACCGCG | 0.21
ATTTATTG | -0.063
ATAGAAAG | -0.0625
GTTGGACA | -0.116
GAGCGCTC | 0.022
TACTATGA | -0.164
AGTCGGAC | 0.318
GTTGCCTA | 0.0253
CTGCCGCC | -0.104
CAAGTTGA | -0.0848
GACCATCA | 0.034
AAAGTTAA | -0.0461
AAGTAAGT | -0.0777
AACGGCAG | 0.0221
ACTTATAC | 0.0348

Sequence | PBM E-score
ATTGTGTC | -0.0663
CAATTCTC | -0.0428
GATCTCGC | -0.00807
CCCATAAG | -0.026
AGCCTCCT | -0.13
ACCCTAGG | -0.234
AATGGCTA | -0.17
GGGTATGA | 0.0413
CCAAAAGA | -0.0792
AGGCGAGC | -0.172
CACCGACG | 0.36
GTTAGCAA | -0.0968
AAATGAGC | -0.0835
ATATCCAC | -0.00436
CGTACCTC | -0.0658
ATTCGGCG | 0.278
AGGCGTAT | -0.311
CAACGCAA | -0.0686
GGCGAACA | 0.0613
ACATGGGG | -0.109
CCCGGCGG | 0.301
CGTCGTCC | 0.227
GCTAACAC | -0.0478
AGATACAC | -0.0669
ACCGGGCT | 0.334

Sequence | PBM E-score
GATTCGAA | 0.0746
GCCGATCA | 0.263
ACTAATTA | -0.0758
CACCATCC | 0.0474
AGATTGCT | -0.232
CATCACAC | -0.105
AAATCAGC | -0.0987
GAACAATC | 0.13
CATGCAGG | -0.252
CTTCGCCC | 0.228
AGTGATGC | -0.21
GTTGAATA | 0.00984
CCAACCGG | 0.261
AGTTCCTC | -0.0498
TGGACCAA | -0.0209
ATAGACAC | -0.248
AAGATACA | -0.132
AAGAAGTA | -0.0966
ATATGGGG | 0.032
AGAGAGCG | 0.0503
CACCAAGC | -0.174
CAGTCCCC | -0.149
ATGGGGGC | -0.174
GGTCTGTA | -0.0296
CACAAATG | -0.287

Sequence | PBM E-score
ACTAGACG | -0.238
GTACGGCA | -0.0308
GCGGACCC | 0.266
CAACGGAA | 0.285
ATATGAAC | -0.0467
ACCGGCAT | 0.327
CCAGTGAC | -0.279
GTCACGGA | 0.371
CAGATTGG | -0.105
GTCCGGCA | 0.35
GTCTGAAC | -0.233
AAGAATTC | -0.0295
ACGTTTTC | -0.00604
AAGGCGAA | 0.0588
AGGCAACC | -0.0659
ATTAAAAA | 0.153
AACCAGGC | 0.0299
TCGTGAGA | 0.0639
CTCGCACC | -0.0557
AAAGGCGC | -0.0167
TCAAGTCA | -0.153
GGGATTTA | 0.327
ATGAGCTA | -0.0958
AAGCTGTG | -0.239
ACCATCAT | -0.224

Sequence | PBM E-score
GTTAAATA | -0.0135
CAGCACGA | -0.00414
GAACGGCA | 0.0583
AGTATGTG | -0.0705
GCCGCTAC | 0.319
CACGTAAC | -0.0508
TGTGAGAA | -0.199
TCCACCCA | -0.237
GAGAGTCA | -0.254
ACGGGATC | 0.029
TAAGTCTA | -0.13
GCACTGAA | -0.0564
ATGTAGTA | -0.0187
ATCAGCTC | -0.0586
CGGCCCCC | 0.0446
CTTTAGGA | -0.101
TGTTGAAA | -0.0236
CTAACCCA | -0.188
CGATTCCA | 0.145
AACATTCC | 0.0487
AACCTTTG | -0.0576
GGCCGCCC | 0.157
AAGCGTCA | -0.211
GGTTAACC | 0.154
ATGAAACC | 0.111

Sequence | PBM E-score
CGAGGTTC | 0.153
AGGTTACC | 0.164
CGGAGTTC | 0.394
AATTGTGA | -0.186
AGTCCCAA | -0.0326
CCATAACA | 0.018
AGTCTTAA | -0.173
AGCGCGAC | -0.097
CCCAGAAC | -0.157
ATTTCTAA | -0.0358
ATTGGGTC | 0.0667
CTAGCTAA | -0.146
ACCGCTCG | 0.138
GTTGAGTA | -0.0445
AATCCTAC | -0.124
CATCAAGC | -0.0689
AGTCCAGC | -0.206
ATTCGGCA | 0.224
GAGCGCAA | -0.175
TCGTATCA | -0.126
GCGGGTTA | 0.186
CGAGTCAC | -0.0297
CCGCGAGA | 0.0382
AAATTATC | 0.00869
CGTTTGAC | -0.00884

Sequence | PBM E-score
GACGTAAC | -0.0523
GTGTAGGA | -0.0476
AGATTGAC | -0.0733
AGCAGAAG | -0.152
ACAGGCGC | -0.177
GAAGGATA | -0.051
CACGCGAA | -0.194
CACAAGTG | -0.295
AATCTGCA | -0.242
ATCCTTTA | -0.0914
ATTTATGA | -0.0066
ACGGTTAA | 0.0365
ATGATCGG | 0.249
GTGTATGA | -0.114
AGAGGTAT | -0.0675
GAACAAAA | -0.0791
TCTTTGAA | -0.225
CACTATCA | -0.209
ATTTCTAG | 0.109
ACCCAGGA | -0.237
CCCACATA | -0.112
CAGTTCAA | -0.0453
